The full ranking holds about 33,000 sequences; the median of “E-score (-0.5 to 0.5)” is about -0.04, and the highest 2% start at about 0.36. Some of the results follow.
target: T1, Hmlalpha2 (UniProt P0CY09); test: PBM E-score (8-mer binding enrichment) (E-score (-0.5 to 0.5)); higher = stronger / more preferred TF binding; most listed sequences are background and not binding sites; conditions: protein concentration: 200 nM; construct: GST-full length
T1 sequence: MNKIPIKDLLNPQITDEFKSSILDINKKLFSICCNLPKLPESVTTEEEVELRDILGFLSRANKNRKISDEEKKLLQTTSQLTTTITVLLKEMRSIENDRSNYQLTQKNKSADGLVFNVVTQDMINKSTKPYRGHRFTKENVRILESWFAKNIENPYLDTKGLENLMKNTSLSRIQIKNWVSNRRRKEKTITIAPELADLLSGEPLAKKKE
In short: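 Yeast transcription factors, full-length or as DNA-binding domains, were expressed with a GST tag using PURExpress in vitro transcription/translation. At about 100-200 nM they were applied to universal all-10-mer Agilent arrays, double-stranded by primer extension on fresh or once-stripped slides. Fluorescent anti-GST detected bound protein, and masliner normalised the scans. E-scores for ungapped eight-base words, pooled with reverse complements, came from the Universal PBM Analysis Suite.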

Sequence	PBM E-score
ATGGGACG	-0.19
GTAGTATA	0.233
AAATGGCA	-0.0457
AAGGCTTA	-0.071
AGTGTTAC	0.221
AGGCGCCG	-0.0461
ACCGCATG	0.0197
ACGCTTGA	0.175
ATTACCTG	0.192
CCGCAGCA	-0.179
CTTTTAAA	0.136
AAGGCCGT	-0.14
AAATGGGG	-0.12
ATAGGACA	-0.131
CCACGTTA	0.239
ACTATCCA	-0.16
CTAGAGTA	-0.0114
AACCCTTC	-0.176
CTCCCTCA	-0.246
ATCAATAG	-0.00766
AATTCGTC	-0.00347
ATGGACCA	0.0842
CGGCGGAA	-0.204
AATCTAAT	0.144
ATCCGTGC	0.0886

Sequence	PBM E-score
GTGTGTTA	0.435
CGCGCAAC	0.00267
GCACTGAC	-0.107
GAGGACCA	-0.111
CATAGGAA	-0.152
GGCTATGA	-0.141
TATTTGGA	-0.0484
CCCAGACA	-0.0474
AGTCCTCC	-0.217
CCACGAGA	-0.244
ACACCAGT	-0.084
AGAACCCA	-0.135
GCCCTGGA	-0.335
CCCGATGC	-0.314
ACACAAAC	0.303
CCGAATCA	-0.159
GCATGCAC	0.101
GCCATTAA	-0.00827
TAGGGGAA	-0.236
ACAGTCCC	-0.307
ACCCCATA	-0.178
CCTTGAAG	-0.0345
AGAAGGAT	-0.0473
GCGTTATA	0.218
GACTCCCA	-0.265

Sequence	PBM E-score
CACATCAA	0.0801
TACGTGCA	0.169
CATGGGTC	-0.121
GAATCAAC	0.174
AGCTCTAG	-0.0541
GACACGAA	0.2
GGGTCGTA	-0.0117
CTCAGGCC	-0.186
CGTGCCTA	-0.236
CGTATATC	0.0485
ACCGCAAC	0.121
ATCCCCCC	-0.435
CGCCAGGC	-0.143
ACTCCGCT	-0.0163
AGTACTCG	0.193
CTTTTCCA	-0.265
AGTTCACA	0.151
AGGTTAGA	-0.226
TCAATCAA	0.183
ATGGAGTG	-0.12
ACTATCAT	0.0111
AAACGGCT	-0.193
AAGTGAAG	-0.0328
TACCACAA	0.237
AGCAGGCA	-0.21

Sequence	PBM E-score
TCCTAACA	0.246
AGTCGATC	-0.217
AAAACACC	0.16
ACGACAAA	0.171
ACGTAGCG	0.0984
CTTCAGCC	-0.232
CAAGGTCG	-0.107
AAGAGTCT	-0.155
CGAGTTAA	0.291
CGGGCCTC	-0.229
CACTGAAG	-0.0323
AATTGGTA	0.0935
CCATTAGC	-0.0822
GCTGTCTA	-0.118
CGATTCAG	-0.181
TCCCGACA	0.00597
AATAAGAA	0.0407
AGACTTCA	-0.0211
GTCCTCTA	-0.191
AAAGAATA	0.195
ATGGGCCC	-0.236
CAACGGAC	0.0644
AGGGCGTC	-0.174
CTTCGTGC	-0.0253
ATTTTACA	0.41

Sequence	PBM E-score
CTCCCCTA	-0.324
CGCCGCAG	-0.326
CGCTTGCA	-0.0244
GGCGACTA	-0.154
CTCAATCC	0.0989
TAGCCTCA	-0.192
ACGCCAGC	-0.0249
CCGCTGCC	-0.132
CAAATACC	-0.079
ATGCGAGA	0.0252
ACGACGCC	-0.0954
CATCAAAG	-0.124
AAACTATA	0.195
AAACCTTA	0.115
ACTACGTG	0.144
CACCGTGG	-0.136
CAGTCCGC	-0.294
AGCTAAAG	-0.0118
GGCTGCGA	-0.265
ACATATAC	0.314
CGGCAGGC	-0.153
AGGCAAGG	-0.27
ACTGGGAT	0.0104
ATGGACGG	-0.00065
GGAGTCGA	-0.309

Sequence	PBM E-score
CAGATCAC	0.0461
CGTACGAC	0.0253
CGTAATTA	0.389
CGATGGAG	-0.202
GTGATTCA	0.107
CGGCGGGC	-0.316
ACGCTGGG	-0.262
GGTAGTTA	0.0255
CGCCTAGC	-0.3
GCACGCAA	-0.0466
AGTAACAA	0.288
CGCCTACA	0.117
CTACAGAG	0.184
GGAATATA	0.0296
ATGGTGGC	-0.22
AAAAGTGA	0.0299
GGAACGGA	-0.224
ATATTTAC	0.345
GAGTCATA	-0.0489
CATGCAAG	0.0696
CACGAGGA	-0.0217
CCGAGCTA	-0.0825
TATGTAGA	0.424
AGATGAGC	-0.0974
ATCCTGTA	0.284

Sequence	PBM E-score
GGCATTAC	0.186
TAGAGACA	0.00169
AGCAAATG	-0.149
GAGATCTC	-0.29
CTGCGTCC	-0.16
CAATCGGG	-0.0401
GGCTTTAA	-0.021
CGCGTCAA	0.289
ATCGTGAG	-0.131
ATACTAAA	0.137
CGAATCTC	-0.0403
AGCCAAAC	-0.0808
ATGCCTAA	-0.0628
CTAACGTC	0.122
CACGAACG	-0.00018
CGCTGGAG	-0.303
ATCTACCA	0.166
ACCGCCTG	-0.093
GAGGACTA	-0.113
GAGTGACA	0.116
CCCACCAC	-0.191
GATGGTGA	-0.208
